The supplement of paper PMC6746778
The other results are listed elsewhere or left out. Repeats are few or missing, and single values can be far off.

Key:
Assay in all cases: proliferation Z-score within cell line (SRB, relative to all inhibitors screened on that line); triple-negative breast cancer lines and a kinase inhibitor library; SRB is the sulforhodamine B protein stain; higher = less growth inhibition (more resistant)
Details in all cases: concentration: 1 µM; 4 days
Bt20 = test system: Bt20
Bt549 = test system: Bt549
HCC1143 = test system: HCC1143
HCC1806 = test system: HCC1806
HCC1937 = test system: HCC1937
HCC38 = test system: HCC38
HCC70 = test system: HCC70
Hs578T = test system: Hs578T
MDA-MB-231 = test system: MDA-MB-231
MDA-MB-435s = test system: MDA-MB-435s
MDA-MB-436 = test system: MDA-MB-436
MDA-MB-453 = test system: MDA-MB-453
MDA-MB-468 = test system: MDA-MB-468
SKBR7 = test system: SKBR7
SUM1315MO2 = test system: SUM1315MO2
SUM149PT = test system: SUM149PT
SUM159PT = test system: SUM159PT
SUM185PE = test system: SUM185PE
SUM229PE = test system: SUM229PE
SUM52PE = test system: SUM52PE
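Also: Single-dose primary screen of a 378-member kinase inhibitor library in 96-well plates, with growth read as absorbance of protein-bound SRB dye after TCA fixation.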

Row | SMILES | proliferation Z-score within cell line (Bt20) | proliferation Z-score within cell line (Bt549) | proliferation Z-score within cell line (HCC1143) | proliferation Z-score within cell line (HCC1806) | proliferation Z-score within cell line (HCC1937) | proliferation Z-score within cell line (HCC38) | proliferation Z-score within cell line (HCC70) | proliferation Z-score within cell line (Hs578T) | proliferation Z-score within cell line (MDA-MB-231) | proliferation Z-score within cell line (MDA-MB-435s) | proliferation Z-score within cell line (MDA-MB-436) | proliferation Z-score within cell line (MDA-MB-453) | proliferation Z-score within cell line (MDA-MB-468) | proliferation Z-score within cell line (SKBR7) | proliferation Z-score within cell line (SUM1315MO2) | proliferation Z-score within cell line (SUM149PT) | proliferation Z-score within cell line (SUM159PT) | proliferation Z-score within cell line (SUM185PE) | proliferation Z-score within cell line (SUM229PE) | proliferation Z-score within cell line (SUM52PE)
1 | Oc1cccc(-c2nc(N3CCOCC3)c3oc4ncccc4c3n2)c1 | 0.79 | -0.121 | -1.15 | 0.823 | -1.5 | 0.569 | 0.316 | 0.6 | -1.24 | -1.83 | -1.12 | 0.582 | 0.517 | 0.96 | -2.1 | 0.485 | 0.55 | -1.84 | -1.8 | -1.04
2 | O=C(NC(NC(=S)Nc1ccc(F)c([N+](=O)[O-])c1)C(Cl)(Cl)Cl)C(c1ccccc1)c1ccccc1 (stereo not given) | 0.681 | 0.536 | 0.363 | 0.538 | 0.178 | 0.418 | 0.246 | 0.317 | 0.597 | 0.525 | -0.0715 | 0.455 | 0.667 | -0.434 | 0.718 | 0.669 | 0.159 | 0.933 | 0.735 | 0.832
3 | O=c1cc(-c2cccc3c2Sc2ccccc2S3)oc(N2CCOCC2)c1 | 1.01 | 0.619 | -2.22 | -0.681 | -2.6 | 0.343 | -2.17 | 0.483 | 0.899 | 0.577 | -2.31 | 0.109 | 0.847 | -0.515 | 0.979 | 0.719 | -2.53 | 0.527 | 0.221 | 0.957
4 | O=C(O)c1ccc(-c2c[nH]c3ncc(-c4ccccc4)cc23)cc1C1CCCC1 | 0.582 | 0.237 | 0.673 | 0.683 | 0.587 | 0.267 | 0.582 | 0.313 | 0.653 | 0.729 | 0.805 | 0.596 | 0.774 | 0.841 | 0.662 | 0.563 | 0.238 | 0.604 | 0.691 | 0.884
5 | Cn1c(=O)c(F)c(Nc2ccc(I)cc2F)c2c(=O)n(C[C@@H](O)CO)cnc21 | 0.0153 | 0.0345 | -1.37 | -1.04 | 0.266 | 0.0381 | -0.0586 | -0.454 | -1.34 | -1.14 | -0.145 | -0.683 | -0.822 | 0.743 | -0.0186 | -1.67 | 0.444 | -0.316 | -1.75 | -1.06
6 | Nc1ccc(-c2ccc3ncc4ccc(=O)n(-c5cccc(C(F)(F)F)c5)c4c3c2)cn1 [Torin 2] | -1.79 | -1.64 | -0.735 | 0.856 | -1.43 | -0.93 | -1.57 | -1.71 | -1.48 | -1.6 | -1.45 | -1.36 | -1.43 | -1.5 | -1.17 | -1.72 | -1.32 | -1.43 | -1.82 | -1.26
7 | O=C(NOCC1CC1)c1ccc(F)c(F)c1Nc1ccc(I)cc1Cl | 0.494 | 0.0898 | -0.182 | -0.459 | 0.135 | 0.354 | 0.573 | 0.213 | -1.69 | -2.01 | 0.723 | 0.846 | 0.728 | 0.48 | 0.893 | -1.03 | 0.615 | 0.63 | -1.69 | -0.629
8 | O=C(c1cccc(Cl)c1F)N1CCN(Cc2cccc(Nc3nccs3)n2)CC1 | -2.42 | -0.913 | -1.32 | -0.412 | 0.0941 | -0.924 | -1.9 | -1.61 | -0.724 | -1.05 | -0.823 | -1.71 | -2.1 | -1.57 | -1.49 | -0.536 | -1.26 | 0.154 | -0.306 | -1.12
9 | Cc1cc(Nc2cc(N3CCN(C)CC3)nc(/C=C/c3ccccc3)n2)n[nH]1 | -0.161 | 0.363 | -0.488 | -0.93 | -0.0172 | -0.0376 | -0.191 | 0.176 | -1.22 | -1.33 | -0.977 | -1.13 | -1.89 | -0.887 | -1.2 | -0.651 | -0.152 | -1.06 | -0.683 | -1.73
10 | Oc1cc(O)cc(/C=C/c2ccc(O)c(O)c2)c1 [Piceatannol] | 0.632 | 0.83 | 0.529 | 0.814 | 0.736 | 0.555 | 0.583 | 0.721 | 0.651 | 0.803 | 0.536 | 0.9 | 0.908 | 1.17 | 0.773 | 0.805 | 0.499 | 0.537 | 0.384 | 0.66
11 | Cc1c(NC(=O)c2ccc(C(C)(C)C)cc2)cccc1-c1cn(C)c(=O)c(Nc2ccc(C(=O)N3CCOCC3)cc2)n1 | 0.297 | 0.378 | 0.716 | 0.618 | 0.827 | 0.544 | 0.556 | 0.446 | 0.48 | 0.618 | 0.258 | 0.777 | 0.723 | 0.304 | -0.124 | 0.629 | 0.574 | 0.237 | 0.701 | 0.0607
12 | Cc1ccc(-n2nc(C(C)(C)C)cc2NC(=O)Nc2ccc(OCCN3CCOCC3)c3ccccc23)cc1 [BIRB 796 (Doramapimod)] | 1.06 | 0.733 | 0.589 | 1.41 | 0.414 | 0.639 | 0.67 | 0.698 | 0.751 | 0.881 | 0.636 | 0.851 | 1.15 | 0.376 | 0.485 | 0.889 | 0.769 | 0.74 | 1.51 | 0.858
13 | N#CCNC(=O)c1ccc(-c2ccnc(Nc3ccc(N4CCOCC4)cc3)n2)cc1 | 0.825 | 0.617 | -0.139 | 0.633 | -0.357 | 0.557 | 0.508 | 0.562 | -0.343 | 0.196 | 0.376 | 0.663 | -0.229 | 0.711 | 0.174 | 0.16 | 0.584 | 0.584 | 0.918 | 1.17
14 | CCCS(=O)(=O)Nc1ccc(F)c(C(=O)c2c[nH]c3ncc(Cl)cc23)c1F | -0.0385 | 1.03 | 1.1 | 1.45 | 0.907 | 0.717 | 0.94 | 0.848 | 0.589 | -1.78 | 1.26 | 0.923 | 0.509 | 0.895 | -0.122 | 0.515 | 0.674 | -0.15 | 1.4 | 0.00644
15 | CCc1cncnc1N1CCN(Cc2nc3ccc(C(F)(F)F)cc3[nH]2)CC1 | 0.44 | 0.606 | -0.723 | 0.641 | -1.72 | 0.352 | -1.99 | 0.271 | 0.225 | 0.796 | -1.92 | 0.672 | 0.728 | 0.569 | 0.938 | 0.787 | -0.969 | 0.662 | 0.897 | 1.21
16 | C=CC(=O)Nc1cccc(Nc2nc(Nc3ccc(NC4CN(CCF)C4)cc3OC)ncc2C(F)(F)F)c1 | 0.0799 | 0.418 | -0.598 | -1.28 | -0.482 | 0.605 | 0.594 | 0.511 | 0.255 | 0.364 | 0.000711 | -0.84 | -0.887 | 0.625 | -0.319 | -0.39 | 0.46 | 0.207 | -0.463 | 0.293
17 | CCNC(=O)Nc1ccc(-c2nc3c(c(N4CCOC[C@@H]4C)n2)CCN(C2COC2)C3)cc1 | -2.01 | -2.7 | -1.29 | -0.829 | -2.38 | -1.42 | -2.81 | -2.91 | -1.29 | -1.42 | -2.5 | -2.19 | -1.52 | -1.85 | -1.67 | -1.48 | -1.85 | -2.09 | -1.42 | -1.92
18 | C=CC(=O)Nc1cccc(Nc2nc(Nc3ccc(OCCOC)cc3)ncc2F)c1 | 0.188 | 0.343 | 0.615 | 0.623 | 0.493 | 0.497 | 0.589 | 0.424 | 0.253 | -0.205 | 0.482 | 0.518 | -0.261 | 0.628 | -0.871 | -0.0953 | 0.53 | -0.822 | 0.0733 | -1.54
19 | CN1CCN(S(=O)(=O)c2ccc(-c3cnc(N)c(C(=O)Nc4cccnc4)n3)cc2)CC1 | 1.19 | 0.549 | 0.838 | 0.683 | 0.709 | 0.463 | 0.638 | 0.67 | 0.292 | 0.59 | 1.57 | 0.884 | 0.368 | 0.84 | 2.68 | 1.07 | 0.573 | 0.79 | 1.65 | 1.33
20 | O=C(O)c1ccc(Nc2ncc3c(n2)-c2ccc(Cl)cc2C(c2c(F)cccc2F)=NC3)cc1 | -1.63 | -0.653 | 0.878 | -0.842 | 0.717 | -0.701 | 0.507 | -0.789 | -0.0765 | -0.62 | 0.816 | -1.58 | -1.5 | -0.921 | -0.715 | -0.186 | 0.148 | -0.258 | -0.288 | -0.762
21 | Cn1cc(C2=C(c3ccc(Cl)cc3Cl)C(=O)NC2=O)c2ccccc21 | 0.645 | 0.673 | 0.509 | 0.271 | 0.539 | 0.315 | 0.489 | 0.595 | 0.978 | 0.546 | 0.288 | 0.58 | 0.986 | 0.41 | 1.56 | 0.883 | 0.394 | 1.71 | 0.898 | 1.14
22 | CNc1nc(Nc2cn(C(C)(C)C#N)nc2C)ncc1C(F)(F)F | -0.434 | 0.419 | 0.131 | 0.779 | 0.246 | 0.286 | 0.258 | -0.135 | 0.515 | 0.334 | -0.155 | 0.392 | 0.445 | -0.588 | -0.0921 | 0.246 | -0.0928 | -0.531 | -0.493 | -0.236
23 | CO[C@H]1C[C@@H]2CC[C@@H](C)[C@@](O)(O2)C(=O)C(=O)N2CCCC[C@H]2C(=O)O[C@H]([C@H](C)C[C@@H]2CC[C@@H](O)[C@H](OC)C2)CC(=O)[C@H](C)/C=C(\C)[C@@H](O)[C@@H](OC)C(=O)[C@H](C)C[C@H](C)/C=C/C=C/C=C/1C [Rapamycin (Sirolimus)] | -1.45 | -2.1 | -1.45 | -0.101 | -1.3 | -1.03 | -1.59 | -2.47 | -0.602 | -0.803 | -1.61 | -1.84 | -0.612 | -1.49 | -0.676 | -0.851 | -1.56 | -0.759 | -1.02 | -0.905
24 | Cc1cc2c(F)c(Oc3ncnn4cc(OC[C@@H](C)O)c(C)c34)ccc2[nH]1 | 0.643 | 0.82 | 0.913 | 0.904 | 0.83 | 0.63 | 0.895 | 0.678 | 0.29 | 1.2 | 0.749 | 1.11 | 0.786 | 1.46 | 0.018 | 0.702 | 0.62 | -0.424 | 0.748 | -0.138
25 | Cc1ccc2nc(NCCN)c3ncc(C)n3c2c1 | 0.55 | 0.126 | 0.426 | 0.624 | 0.588 | 0.32 | 0.453 | 0.43 | 0.721 | 0.673 | 0.243 | 0.561 | 0.726 | 0.601 | 0.848 | 0.734 | 0.212 | 1.06 | 0.947 | 0.867
